The campaign covered roughly 410,000 compounds. About 6,400 (1.6%) were called active. This list was built around the results that the source calls inconclusive (neither active nor inactive); the mix of calls is not that of the screen. The call rests on the fitted dose curve; in most records, active means well fitted inhibition curve with a large enough effect; inconclusive means small, poorly fitted or top-dose-only effect; inactive means no such curve, though single readings can be large or run the other way. Potencies of inconclusive entries are left out as doubtful fits. Square brackets hold non-standard residues; d marks the D form. Peptide text beside a SMILES is read from it. NMeY = CN[C@@H](Cc1ccc(O)cc1)C(=O)O; NMeF = CN[C@@H](Cc1ccccc1)C(=O)O; 2Abz = Nc1ccccc1C(=O)O
The compounds below were run against Glucagon-like peptide 1 receptor (Homo sapiens) (UniProt P43220) (assay: qHTS of GLP-1 Receptor Inverse Agonists (Inhibition Mode)). Details: HEK293 GLP-1R CRE-luciferase, luminescence, 24 h, GLP-1R form is constitutively active; activity change, negative = inhibition: at 38.3 µM (top of the series) unless noted.
Chain of UniProt P43220 (P43220 whole entry, looked up): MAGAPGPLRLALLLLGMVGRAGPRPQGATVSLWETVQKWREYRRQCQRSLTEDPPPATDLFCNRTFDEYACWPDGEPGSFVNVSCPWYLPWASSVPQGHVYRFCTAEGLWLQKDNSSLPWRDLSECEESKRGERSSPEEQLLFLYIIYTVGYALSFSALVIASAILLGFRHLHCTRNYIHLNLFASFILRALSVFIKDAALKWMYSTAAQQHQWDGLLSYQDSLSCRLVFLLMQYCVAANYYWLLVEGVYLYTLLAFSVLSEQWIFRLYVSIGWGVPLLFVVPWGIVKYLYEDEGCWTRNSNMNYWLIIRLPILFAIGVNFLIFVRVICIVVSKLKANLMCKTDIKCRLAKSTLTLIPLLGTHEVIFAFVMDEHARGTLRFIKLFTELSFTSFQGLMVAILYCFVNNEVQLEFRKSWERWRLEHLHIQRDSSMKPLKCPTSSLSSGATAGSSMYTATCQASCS
Description: The overall goal of this project was to develop a novel assay for discovering small molecule ligands for class B1 G protein-coupled receptors (GPCRs). Very few agonists (or inverse agonists in inhibition mode) with generally weak activity for this entire group of physiologically important receptors are known to date. To establish proof-of-principle that this critical bottleneck can be overcome with a suitable screening approach, our studies focused on the class B1 receptor for glucagon-like peptide-1 (GLP-1R), a potential therapeutic target for diabetes and neurodegenerative disease. The assay was developed using a cell-based functional readout. Toward this goal, stably transfected HEK293 cell clones were established that co-express (i) a cAMP-responsive luciferase reporter gene, and (ii) constitutively active GLP-1R that upon ligand interaction inhibit (inverse agonists) the luciferase activity. In addition, two control cell lines were developed: (i) one that express only the cAMP-responsive reporter gene to enable initial exclusion of GLP-1R independent effects of candidate probes; and (ii) one with the reported gene cloned with another constitutively active orphan receptor GPR119 to enable exclusion of GLP-1R independent inhibitor effects of candidate inverse agonists. To that end, this assay was optimized for 1536-well format and screened against the MLSMR. […] NIH Molecular Libraries Probe Production Network [MLPCN] NIH Chemical Genomics Center [NCGC] Grant: NS064851 PI Name: Martin Beinborn, Tufts Medical Center
Six ul of cell suspension (200 cells/uL in DMEM + 10% Nu serum + 1% pen-strep) is dispensed in a white solid 1536-well plate. The plates are incubated for 12 hours at 37 deg C at 5% CO2 followed by addition of 23 nL compounds. After 24 hr incubation at 37 deg C and 5% CO2, 3 uL of luciferase assay detection reagent is added. A luminescence read is obtained on the PerkinElmer Viewlux after 12 min incubation at room temperature.
`Cc1ccc(OCCCC(=O)N(C)CC(=O)Nc2ccccc2Br)cc1` was tested, and the Potency was inconclusive [inhibitor, single point]. In the case of `Cc1ccc(-c2nc(N)sc2CC(=O)OCC(=O)N2C(C)CCCC2C)cc1` (centres undefined), the Potency is reported as inconclusive [inhibitor, partial curve, poor fit]. For `CCCCOc1ccc(-c2nnc(-c3cc[n+](C)cc3)o2)cc1`, the Potency was inconclusive [inhibitor, partial curve, poor fit]. `CC1=CN2C(=N)/C(=C/c3ccc(C)o3)C(=O)N=C2S1` was tested, and the Potency was inconclusive [inhibitor, single point]. In the case of `CCC/C=C/c1ccc(CN2C(C(C)C)C(=O)N(Cc3cn(Cc4ccco4)nn3)CCS2(=O)=O)cc1` (centres undefined), the Potency is reported as inconclusive [inhibitor, partial curve, poor fit]. In the case of `Cc1ccc(Cl)cc1N1CCN(C(=O)C(C)n2ncn3cccc3c2=O)CC1` (centres undefined), the Potency is reported as inconclusive [inhibitor, single point]. In the case of `O=S(=O)(Nc1ccc(Cl)cc1)c1ccc2c(c1)CCO2`, the Potency is reported as inconclusive [inhibitor, partial curve]. In the case of `Cc1cccc(N2CCN(S(=O)(=O)c3ccc(F)c(C(=O)Nc4cccc(Cl)c4C)c3)CC2C)c1` (centres undefined), the Potency is reported as inconclusive [inhibitor, single point]. With `Cc1nc2cc(C(=O)NCc3ccc4c(c3)OCO4)ccc2n1-c1ccc(Br)cc1` the Potency was inconclusive [inhibitor, single point]. In the case of `O=C(CSc1nc(-c2ccccc2)cc(C(F)(F)F)n1)c1cccc([N+](=O)[O-])c1`, the Potency is reported as inconclusive [inhibitor, partial curve, poor fit]. With `CCNC(=O)c1c(NC(=O)c2cc(=O)c3ccc(C)c(C)c3o2)sc2c1CCCC2` the “activity change, negative = inhibition” value was inactive: -4.47%. For `CCOC(=O)C1(Nc2nccs2)Sc2ccccc2NC1=O` (centres undefined), the Potency was inconclusive [inhibitor, full curve]. With `CC(C)Oc1ccc(CNC(=O)C2CCN(C(=O)N3CCOc4ccc(Cl)cc43)CC2)cc1` the Potency was inconclusive [inhibitor, single point]. With `CSc1ncccc1C(=O)Nc1cc(Cl)ccc1N1CCOCC1` the Potency was inconclusive [inhibitor, single point]. In the case of `COCCNc1oc(-c2ccc(C)cc2)nc1C#N`, the “activity change, negative = inhibition” value is reported as inactive: 19.8%. `O=C(CNC(=O)c1ccccc1)N/N=C/c1cc(Br)ccc1O` was tested, and the Potency was inconclusive [inhibitor, partial curve, poor fit]. In the case of `Cc1ccc(C(=O)N/C(=C\c2ccc(-c3ccccc3[N+](=O)[O-])o2)C(=O)NCCCN2CCOCC2)cc1`, the Potency is reported as inconclusive [inhibitor, single point]. With `O=C1/C(=C/c2ccncc2)SC(=S)N1Nc1ccccc1` the Potency was inconclusive [inhibitor, full curve, poor fit]. For `Cc1cccc(NC(=O)CSc2nc3ccccc3c3nc(CCn4cncc4C)nn23)c1`, the Potency was inconclusive [inhibitor, single point]. In the case of `O=C(c1cccc2ccccc12)N1CCC(N2CCN(c3ccccc3)CC2)CC1`, the Potency is reported as inconclusive [inhibitor, full curve, poor fit]. In the case of `O=c1cc2nc(-c3ccccc3)nc(SCc3cccc(Br)c3)n2[nH]1`, the “activity change, negative = inhibition” value is reported as inactive: 9.51%. For `CCN1CCN(C(=O)Cn2ncc3c4ccccc4n(Cc4ccccc4F)c3c2=O)CC1`, the “activity change, negative = inhibition” value was inactive: 19.2%. In the case of `CCOC(=O)C1CCCN(C(=O)c2cc(-c3ccc(C)cc3)on2)C1` (centres undefined), the Potency is reported as inconclusive [inhibitor, single point]. With `O=C(CC(c1cccs1)N1Cc2ccccc2C1=O)Nc1ccccc1` (centres undefined) the “activity change, negative = inhibition” value was inactive: -28.7%. For `COc1ccc(OC)c(C(C)NC(=O)C23CC4CC(CC(C4)C2)C3)c1` (centres undefined), the Potency was inconclusive [inhibitor, partial curve, poor fit]. `COc1cc(C(=O)NCCc2ccc(F)cc2)c([N+](=O)[O-])cc1OC` was tested, and the “activity change, negative = inhibition” value was inactive: 0.0553%. In the case of `CC(C)C(c1nnnn1Cc1ccco1)N1CCN(c2cccc(Cl)c2)CC1` (centres undefined), the Potency is reported as inconclusive [inhibitor, partial curve, poor fit]. In the case of `Cc1cccc(N2CCN(C(c3ccc(F)cc3)c3nnc(-c4ccccc4)o3)CC2)c1C` (centres undefined), the Potency is reported as inconclusive [inhibitor, partial curve, poor fit]. In the case of `COc1ccc2c(c1)CCN1C2CCN2C(=O)CCC21` (centres undefined), the “activity change, negative = inhibition” value is reported as inactive: -4.88%. For `CC(C)(C)c1ccc(C(=O)N2CCC2(C)C(=O)Nc2cccc3ccccc23)cc1` (centres undefined), the Potency was inconclusive [inhibitor, partial curve]. `COc1ccc(S(=O)(=O)N2CCN(C(=O)CCC3CCCC3)CC2)cc1` was tested, and the Potency was inconclusive [inhibitor, partial curve, poor fit]. In the case of `Cc1cc(C)c(NC(=O)c2ccc(CN3CCc4ccccc4C3)cc2)c(C)c1`, the Potency is reported as inconclusive [inhibitor, partial curve, poor fit]. In the case of `COC(=O)[C@]12CCCCC=C1N(CCC1=CCCCC1)C(=O)[C@H](CC(=O)NCC1CCCCC1)C2`, the Potency is reported as inconclusive [inhibitor, single point]. With `CCN(CC)CCCNC(=O)C1CCC(CNS(=O)(=O)c2ccc(Cl)cc2)CC1` (centres undefined) the Potency was inconclusive [inhibitor, partial curve, poor fit]. In the case of `COc1ccc(C(=O)N[C@H](C(=O)NCCCSc2ccccc2)C(C)C)cc1`, the Potency is reported as inconclusive [inhibitor, partial curve, poor fit]. In the case of `CCN(CC)c1ccc(/C=N/Nc2nn[nH]n2)cc1`, the “activity change, negative = inhibition” value is reported as inactive: 2.92%. For `CCCCCCCCCC[n+]1cccc2c3ccccc3ccc21`, the Potency was inconclusive [inhibitor, full curve]. `COCCNC(=S)NN=C1CCCCCC1` was tested, and the Potency was inconclusive [inhibitor, partial curve, poor fit]. For `CCc1ccc(OCC(=O)NCC(c2ccc(Cl)cc2)N2CCOCC2)cc1` (centres undefined), the Potency was inconclusive [inhibitor, single point]. For `CC(C)n1ncc2c(C(=O)Nc3cccc(C#N)c3)cc(C3CC3)nc21`, the Potency was active: 8.91 µM. `CC1(C)Cc2c(c(N3CCOCC3)nc3snc(Br)c23)CO1` was tested, and the “activity change, negative = inhibition” value was inactive: 41.5%. `Cc1cc([N+](=O)[O-])cc2c1NCC1CC=CC21` (centres undefined) was tested, and the Potency was inconclusive [inhibitor, partial curve, poor fit]. With `O=C1C=C(C2OC(CO)C(O)C2O)C(=O)N1` (centres undefined) the “activity change, negative = inhibition” value was inactive: -1.33%. For `O=C(COc1ccccc1)Nc1ccc(CSc2ccccc2)cc1`, the Potency was inconclusive [inhibitor, single point]. With `Fc1ccc(NC(=S)N2CCCc3ccccc32)cc1` the Potency was inconclusive [inhibitor, single point]. With `CC(C)C[C@@H]1NC(=O)[C@H](Cc2ccccc2)N(C)C(=O)[C@H](C)NC(=O)c2ccccc2NC(=O)[C@H](Cc2ccc(O)cc2)N(C)C1=O` (cyclo([2Abz]A[NMeF]L[NMeY])) the Potency was active: 10 µM. With `Cc1ccc2ncc(C(=O)Nc3cccc(C(F)(F)F)c3)c(=O)n2c1` the “activity change, negative = inhibition” value was inactive: 7.69%. For `COc1cccc(C2CN(c3ccc(F)cc3F)N=C2c2cccs2)c1OC` (centres undefined), the Potency was inconclusive [inhibitor, partial curve, poor fit]. In the case of `COc1ccc(NS(=O)(=O)c2ccc(C(=O)N3CCCCCC3)cc2)cc1`, the Potency is reported as inconclusive [inhibitor, single point]. With `CC(NC(=O)c1ccccc1Cl)C1CC2CCC1C2` (centres undefined) the Potency was inconclusive [inhibitor, partial curve, poor fit]. `O=C(CSc1nc2ccc(Cl)cc2[nH]1)NCCc1ccc(Cl)cc1` was tested, and the Potency was inconclusive [inhibitor, single point]. `Cc1ccc2nc(C)cc(N/N=C/c3ccc(F)cc3)c2c1` was tested, and the Potency was inconclusive [inhibitor, single point]. `Cc1ccc(NS(=O)(=O)c2ccc(-c3cnc(C4CC4)o3)cc2)cc1` was tested, and the Potency was inconclusive [inhibitor, partial curve, poor fit]. With `Cc1cc(C(C)(C)C)cc(C)c1S(=O)(=O)N1CC(=O)Nc2ccccc21` the Potency was inconclusive [inhibitor, single point]. `O=C(N/N=C\c1cccnc1)c1cc(-c2ccccc2)nc2c(Cl)cccc12` was tested, and the Potency was inconclusive [inhibitor, partial curve, poor fit]. For `C/C=C/c1ccc(OCC(=O)Nc2cc(S(=O)(=O)N3CCOCC3)ccc2N2CCCC2)c(OC)c1`, the Potency was inconclusive [inhibitor, partial curve, poor fit]. `CCc1ccc(Nc2nc(N3CCOCC3)nc(N3CCOCC3)n2)cc1` was tested, and the Potency was inconclusive [inhibitor, full curve, poor fit]. In the case of `Cc1cccc(N(Cc2ccc(Cl)cc2)S(C)(=O)=O)c1`, the Potency is reported as inconclusive [inhibitor, single point]. For `CCCc1ccc2oc(C(=O)N3CCC(O)CC3)c(C)c2c1`, the Potency was inconclusive [inhibitor, single point]. `O=C(NC1CCCCC1)Sc1ccc(Cl)cc1` was tested, and the “activity change, negative = inhibition” value was inactive: -2.22%. In the case of `N#Cc1c(SCC(=O)O)nc(-c2ccccc2)c2c1CCCC2`, the “activity change, negative = inhibition” value is reported as inactive: -20.1%. `CC(C)CNc1ncnc2c1cnn2Cc1ccccc1Cl` was tested, and the Potency was inconclusive [inhibitor, partial curve, poor fit]. In the case of `COc1ccccc1NC(=S)N1CCN(c2ccccc2F)CC1`, the “activity change, negative = inhibition” value is reported as inactive: -9.55%. In the case of `CCN(C(=O)c1cc2c(=O)[nH]c3ccc(C)cc3c2s1)c1ccc(F)cc1`, the “activity change, negative = inhibition” value is reported as inactive: 1.17%.
Further: nearly all actives have a fitted effect of over 55% in size.
On the % scale 0 is the no-effect control and ±100 the full control effect; potency means the concentration at half of the fitted maximal effect; tags describe the fitted curve by direction and shape.
